Laboratory results as given in patent US20260297081A1, “COMPOUNDS AND METHODS OF TREATING CANCERS” (Cullgen Inc., priority 2023, published 2026).
The name of at least one read-out is uncertain.

System: cyclin D1
Test: HiBiT detection of HiBiT-tagged cyclin D1 protein level in MCF7 cells, 16 hours (Table 8)
Type: cell-based
Conditions: MCF7 cells stably expressing HiBiT tagged target proteins

| Structure (SMILES) | % Cyclin D1 Relative Level (10 nM) | % Cyclin D1 Relative Level (100 nM) |
| --- | --- | --- |
| CNc1ccc(C(=O)Nc2ccc(N(C)C)nn2)c(NCCCCCNC(=O)CN2CCN(c3ccc(Nc4ncc5cc(C(=O)N(C)C)n(C6CCCC6)c5n4)nc3)CC2)n1 [CPD-627, 7-cyclopentyl-2-((5-(4-(2-((5-((3-((6-(dimethylamino)pyridazin-3-yl)carbamoyl)-6-(methylamino)pyridin-2-yl)amino)pentyl)amino)-2-oxoethyl)piperazin-1-yl)pyridin-2-yl)amino)-N,N-dimethyl-7H-pyrrolo[2,3-d]pyrimidine-6-carboxamide] | C (Relative protein level >85%) | C (Relative protein level >85%) |
| CNc1ccc(C(=O)Nc2ccc(N(C)C)nn2)c(NCCCCCCNC(=O)CN2CCN(c3ccc(Nc4ncc5cc(C(=O)N(C)C)n(C6CCCC6)c5n4)nc3)CC2)n1 [CPD-628, 7-cyclopentyl-2-((5-(4-(2-((6-((3-((6-(dimethylamino)pyridazin-3-yl)carbamoyl)-6-(methylamino)pyridin-2-yl)amino)hexyl)amino)-2-oxoethyl)piperazin-1-yl)pyridin-2-yl)amino)-N,N-dimethyl-7H-pyrrolo[2,3-d]pyrimidine-6-carboxamide] | B (55%< Relative protein level ≤85%) | C (Relative protein level >85%) |
| CNc1ccc(C(=O)Nc2ccc(N(C)C)nn2)c(NCCCCCCCNC(=O)CN2CCN(c3ccc(Nc4ncc5cc(C(=O)N(C)C)n(C6CCCC6)c5n4)nc3)CC2)n1 [CPD-629, 7-cyclopentyl-2-((5-(4-(2-((7-((3-((6-(dimethylamino)pyridazin-3-yl)carbamoyl)-6-(methylamino)pyridin-2-yl)amino)heptyl)amino)-2-oxoethyl)piperazin-1-yl)pyridin-2-yl)amino)-N,N-dimethyl-7H-pyrrolo[2,3-d]pyrimidine-6-carboxamide] | B (55%< Relative protein level ≤85%) | C (Relative protein level >85%) |
| CNc1ccc(C(=O)Nc2ccc(N(C)C)nn2)c(NCCCCCCCCNC(=O)CN2CCN(c3ccc(Nc4ncc5cc(C(=O)N(C)C)n(C6CCCC6)c5n4)nc3)CC2)n1 [CPD-630, 7-cyclopentyl-2-((5-(4-(2-((8-((3-((6-(dimethylamino)pyridazin-3-yl)carbamoyl)-6-(methylamino)pyridin-2-yl)amino)octyl)amino)-2-oxoethyl)piperazin-1-yl)pyridin-2-yl)amino)-N,N-dimethyl-7H-pyrrolo[2,3-d]pyrimidine-6-carboxamide] | B (55%< Relative protein level ≤85%) | C (Relative protein level >85%) |
| CNc1ccc(C(=O)Nc2ccc(N(C)C)nn2)c(NCCOCCNC(=O)CN2CCN(c3ccc(Nc4ncc5cc(C(=O)N(C)C)n(C6CCCC6)c5n4)nc3)CC2)n1 [CPD-631, 7-cyclopentyl-2-((5-(4-(2-((2-(2-((3-((6-(dimethylamino)pyridazin-3-yl)carbamoyl)-6-(methylamino)pyridin-2-yl)amino)ethoxy)ethyl)amino)-2-oxoethyl)piperazin-1-yl)pyridin-2-yl)amino)-N,N-dimethyl-7H-pyrrolo[2,3-d]pyrimidine-6-carboxamide] | C (Relative protein level >85%) | C (Relative protein level >85%) |
| CNc1ccc(C(=O)Nc2ccc(N(C)C)nn2)c(NCCC(=O)N2CCN(c3ccc(Nc4ncc5cc6n(c5n4)C4(CCCCC4)CNC6=O)nc3)CC2)n1 [CPD-632, N-(6-(dimethylamino)pyridazin-3-yl)-6-(methylamino)-2-((3-oxo-3-(4-(6-((6′-oxo-7′,8′-dihydro-6′H-spiro[cyclohexane-1,9′-pyrazino[1′,2′:1,5]pyrrolo[2,3-d]pyrimidin]-2′-yl)amino)pyridin-3-yl)piperazin-1-yl)propyl)amino)nicotinamide] | C (Relative protein level >85%) | C (Relative protein level >85%) |
| CNc1ccc(C(=O)Nc2ccc(N(C)C)nn2)c(NCCCC(=O)N2CCN(c3ccc(Nc4ncc5cc6n(c5n4)C4(CCCCC4)CNC6=O)nc3)CC2)n1 [CPD-633, N-(6-(dimethylamino)pyridazin-3-yl)-6-(methylamino)-2-((4-oxo-4-(4-(6-((6′-oxo-7′,8′-dihydro-6′H-spiro[cyclohexane-1,9′-pyrazino[1′,2′:1,5]pyrrolo[2,3-d]pyrimidin]-2′-yl)amnion)pyridin-3-yl)piperazin-1-yl)butyl)amino)nicotinamide] | C (Relative protein level >85%) | C (Relative protein level >85%) |
| CNc1ccc(C(=O)Nc2ccc(N(C)C)nn2)c(NCCCCC(=O)N2CCN(c3ccc(Nc4ncc5cc6n(c5n4)C4(CCCCC4)CNC6=O)nc3)CC2)n1 [CPD-634, N-(6-(dimethylamino)pyridazin-3-yl)-6-(methylamino)-2-((5-oxo-5-(4-(6-((6′-oxo-7′,8′-dihydro-6′H-spiro[cyclohexane-1,9′-pyrazino[1′,2′:1,5]pyrrolo[2,3-d]pyrimidin]-2′-yl)amino)pyridin-3-yl)piperazin-1-yl)pentyl)amino)nicotinamide] | C (Relative protein level >85%) | C (Relative protein level >85%) |
| CNc1ccc(C(=O)Nc2ccc(N(C)C)nn2)c(NCCCCCC(=O)N2CCN(c3ccc(Nc4ncc5cc6n(c5n4)C4(CCCCC4)CNC6=O)nc3)CC2)n1 [CPD-635, N-(6-(dimethylamino)pyridazin-3-yl)-6-(methylamino)-2-((6-oxo-6-(4-(6-((6′-oxo-7′,8′-dihydro-6′H-spiro[cyclohexane-1,9′-pyrazino[1′,2′:1,5]pyrrolo[2,3-d]pyrimidin]-2′-yl)amino)pyridin-3-yl)piperazin-1-yl)hexyl)amino)nicotinamide] | C (Relative protein level >85%) | C (Relative protein level >85%) |
| CNc1ccc(C(=O)Nc2ccc(N(C)C)nn2)c(NCCCCCCC(=O)N2CCN(c3ccc(Nc4ncc5cc6n(c5n4)C4(CCCCC4)CNC6=O)nc3)CC2)n1 [CPD-636, N-(6-(dimethylamino)pyridazin-3-yl)-6-(methylamino)-2-((7-oxo-7-(4-(6-((6′-oxo-7′,8′-dihydro-6′H-spiro[cyclohexane-1,9′-pyrazino[1′,2′:1,5]pyrrolo[2,3-d]pyrimidin]-2′-yl)amino)pyridin-3-yl)piperazin-1-yl)heptyl)amino)nicotinamide] | C (Relative protein level >85%) | C (Relative protein level >85%) |
| CNc1ccc(C(=O)Nc2ccc(N(C)C)nn2)c(NCCCCCCCC(=O)N2CCN(c3ccc(Nc4ncc5cc6n(c5n4)C4(CCCCC4)CNC6=O)nc3)CC2)n1 [CPD-637, N-(6-(dimethylamino)pyridazin-3-yl)-6-(methylamino)-2-((8-oxo-8-(4-(6-((6′-oxo-7′,8′-dihydro-6′H-spiro[cyclohexane-1,9′-pyrazino[1′,2′:1,5]pyrrolo[2,3-d]pyrimidin]-2′-yl)amino)pyridin-3-yl)piperazin-1-yl)octyl)amino)nicotinamide] | C (Relative protein level >85%) | C (Relative protein level >85%) |
| CNc1ccc(C(=O)Nc2ccc(N(C)C)nn2)c(NCCOCCC(=O)N2CCN(c3ccc(Nc4ncc5cc6n(c5n4)C4(CCCCC4)CNC6=O)nc3)CC2)n1 [CPD-638] | C (Relative protein level >85%) | C (Relative protein level >85%) |
| CNc1ccc(C(=O)Nc2ccc(N(C)C)nn2)c(NCCOCCOCCC(=O)N2CCN(c3ccc(Nc4ncc5cc6n(c5n4)C4(CCCCC4)CNC6=O)nc3)CC2)n1 [CPD-639, N-(6-(dimethylamino)pyridazin-3-yl)-6-(methylamino)-2-((2-(2-(3-oxo-3-(4-(6-((6′-oxo-7′,8′-dihydro-6′H-spiro[cyclohexane-1,9′-pyrazino[1′,2′:1,5]pyrrolo[2,3-d]pyrimidin]-2′-yl)amino)pyridin-3-yl)piperazin-1-yl)propoxy)ethoxy)ethyl)amino)nicotinamide] | C (Relative protein level >85%) | C (Relative protein level >85%) |
| CNc1ccc(C(=O)Nc2ccc(N(C)C)nn2)c(NCCNC(=O)CN2CCN(c3ccc(Nc4ncc5cc6n(c5n4)C4(CCCCC4)CNC6=O)nc3)CC2)n1 [CPD-640, N-(6-(dimethylamino)pyridazin-3-yl)-6-(methylamino)-2-((2-(2-(4-(6-((6′-oxo-7′,8′-dihydro-6′H-spiro[cyclohexane-1,9′-pyrazino[1′,2′:1,5]pyrrolo[2,3-d]pyrimidin]-2′-yl)amino)pyridin-3-yl)piperazin-1-yl)acetamido)ethyl)amino)nicotinamide] | C (Relative protein level >85%) | C (Relative protein level >85%) |
| CNc1ccc(C(=O)Nc2ccc(N(C)C)nn2)c(NCCCNC(=O)CN2CCN(c3ccc(Nc4ncc5cc6n(c5n4)C4(CCCCC4)CNC6=O)nc3)CC2)n1 [CPD-641, N-(6-(dimethylamino)pyridazin-3-yl)-6-(methylamino)-2-((3-(2-(4-(6-((6′-oxo-7′,8′-dihydro-6′H-spiro[cyclohexane-1,9′-pyrazino[1′,2′:1,5]pyrrolo[2,3-d]pyrimidin]-2′-yl)amino)pyridin-3-yl)piperazin-1-yl)acetamido)propyl)amino)nicotinamide] | C (Relative protein level >85%) | C (Relative protein level >85%) |
| CNc1ccc(C(=O)Nc2ccc(N(C)C)nn2)c(NCCCCNC(=O)CN2CCN(c3ccc(Nc4ncc5cc6n(c5n4)C4(CCCCC4)CNC6=O)nc3)CC2)n1 [CPD-642, N-(6-(dimethylamino)pyridazin-3-yl)-6-(methylamino)-2-((4-(2-(4-(6-((6′-oxo-7′,8′-dihydro-6′H-spiro[cyclohexane-1,9′-pyrazino[1′,2′:1,5]pyrrolo[2,3-d]pyrimidin]-2′-yl)amino)pyridin-3-yl)piperazin-1-yl)acetamido)butyl)amino)nicotinamide] | C (Relative protein level >85%) | C (Relative protein level >85%) |
| CNc1ccc(C(=O)Nc2ccc(N(C)C)nn2)c(NCCCCCNC(=O)CN2CCN(c3ccc(Nc4ncc5cc6n(c5n4)C4(CCCCC4)CNC6=O)nc3)CC2)n1 [CPD-643] | C (Relative protein level >85%) | C (Relative protein level >85%) |
